# From the supplement of paper PMC8728848
# This is one part of the list.
# B1: Sialidase (Vibrio cholerae), P37060 (protein)
# chain: GAMALFDYNATGDTEFDSPAKQGWMQDNTNNGSGVLTNADGMPAWLVQGIGGRAQWTYSLSTNQHAQASSFGWRMTTEMKVLSGGMITNYYANGTQRVLPIISLDSSGNLVVEFEGQTGRTVLATGTAATEYHKFELVFLPGSNPSASFYFDGKLIRDNIQPTASKQNMIVWGNGSSNTDGVAAYRDIKFEIQGDALNGSMALFDYNATGDTEFDSPAKQGWMQDNTNNGSGVLTNADGMPAWLVQGIGGRAQWTYSLSTNQHAQASSFGWRMTTEMKVLSGGMITNYYANGTQRVLPIISLDSSGNLVVEFEGQTGRTVLATGTAATEYHKFELVFLPGSNPSASFYFDGKLIRDNIQPTASKQNMIVWGNGSSNTDGVAAYRDIKFEIQGDLQALGMALFDYNATGDTEFDSPAKQGWMQDNTNNGSGVLTNADGMPAWLVQGIGGRAQWTYSLSTNQHAQASSFGWRMTTEMKVLSGGMITNYYANGTQRVLPIISLDSSGNLVVEFEGQTGRTVLATGTAATEYHKFELVFLPGSNPSASFYFDGKLIRDNIQPTASKQNMIVWGNGSSNTDGVAAYRDIKFEIQGD
# Tests used:
# Experiment in all cases: glycan array binding signal (z-score within array); higher = stronger binding
# Conditions in all cases: glycan notation: IUPAC condensed, linker removed
# Gal(a1-2)Gal = molecular target: Gal(a1-2)Gal
# Procedure, shortened: (§1)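 Negative Z-scores can be read as non-binding. The Z-score is calculated within each array and then averaged across arrays of one protein sequence at different concentrations or buffers and across linkers. Arrays, 3228 in all, were curated from the Consortium for Functional Glycomics database and kept only where the protein sequence was available.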
# Gal(a1-3)Gal = molecular target: Gal(a1-3)Gal
# Procedure, shortened: as §1
# Gal(a1-3)Gal(b1-3)GlcNAc = molecular target: Gal(a1-3)Gal(b1-3)GlcNAc
# Procedure, shortened: as §1
# Gal(a1-3)Gal(b1-4)Glc = molecular target: Gal(a1-3)Gal(b1-4)Glc
# Procedure, shortened: as §1
# Gal(a1-3)Gal(b1-4)GlcNAc = molecular target: Gal(a1-3)Gal(b1-4)GlcNAc
# Procedure, shortened: as §1
# [1] = molecular target: Gal(a1-3)Gal(b1-4)[Fuc(a1-3)]GlcNAc
# Procedure, shortened: as §1
# [2] = molecular target: Gal(a1-3)Gal(b1-4)[Fuc(a1-3)]GlcNAc(b1-2)Man(a1-3)[Gal(a1-3)Gal(b1-4)[Fuc(a1-3)]GlcNAc(b1-2)Man(a1-6)]Man(b1-4)GlcNAc(b1-4)GlcNAc
# Procedure, shortened: as §1
# Gal(a1-3)GalNAc = molecular target: Gal(a1-3)GalNAc
# Procedure, shortened: as §1
# [3] = molecular target: Gal(a1-3)[Gal(a1-4)]Gal(b1-4)GlcNAc
# Procedure, shortened: as §1
# Gal(a1-4)Gal(b1-4)Glc = molecular target: Gal(a1-4)Gal(b1-4)Glc
# Procedure, shortened: as §1
# Gal(a1-4)Gal(b1-4)GlcNAc = molecular target: Gal(a1-4)Gal(b1-4)GlcNAc
# Procedure, shortened: as §1
# [4] = molecular target: Gal(a1-4)Gal(b1-4)GlcNAc(b1-3)Gal(b1-4)Glc
# Procedure, shortened: as §1
# Gal(a1-4)GlcNAc = molecular target: Gal(a1-4)GlcNAc
# Procedure, shortened: as §1
# Gal(a1-6)Glc = molecular target: Gal(a1-6)Glc
# Procedure, shortened: as §1
# Gal(b1-2)Gal = molecular target: Gal(b1-2)Gal
# Procedure, shortened: as §1
# Gal(b1-3)Gal = molecular target: Gal(b1-3)Gal
# Procedure, shortened: as §1
# Gal(b1-3)Gal(b1-4)GlcNAc = molecular target: Gal(b1-3)Gal(b1-4)GlcNAc
# Procedure, shortened: as §1
# [5] = molecular target: Gal(b1-3)Gal(b1-4)GlcNAc(b1-2)Man(a1-3)[Gal(b1-3)Gal(b1-4)GlcNAc(b1-2)Man(a1-6)]Man(b1-4)GlcNAc(b1-4)GlcNAc
# Procedure, shortened: as §1
# Gal(b1-3)GalNAc = molecular target: Gal(b1-3)GalNAc
# Procedure, shortened: as §1
# [6] = molecular target: Gal(b1-3)GalNAc(a1-3)[Fuc(a1-2)]Gal(b1-4)Glc
# Procedure, shortened: as §1
# [7] = molecular target: Gal(b1-3)GalNAc(a1-3)[Fuc(a1-2)]Gal(b1-4)GlcNAc
# Procedure, shortened: as §1
# [8] = molecular target: Gal(b1-3)GalNAc(b1-3)Gal(a1-4)Gal(b1-4)Glc
# Procedure, shortened: as §1
# [9] = molecular target: Gal(b1-3)GalNAc(b1-4)Gal(b1-4)Glc
# Procedure, shortened: as §1
# [10] = molecular target: Gal(b1-3)GalNAc(b1-4)[Neu5Ac(a2-3)]Gal(b1-4)Glc
# Procedure, shortened: as §1
# Gal(b1-3)GlcNAc = molecular target: Gal(b1-3)GlcNAc
# Procedure, shortened: as §1
# [11] = molecular target: Gal(b1-3)GlcNAc(b1-2)Man(a1-3)[Gal(b1-3)GlcNAc(b1-2)Man(a1-6)]Man(b1-4)GlcNAc(b1-4)GlcNAc
# Procedure, shortened: as §1
# [12] = molecular target: Gal(b1-3)GlcNAc(b1-2)Man(a1-3)[Gal(b1-3)GlcNAc(b1-2)Man(a1-6)]Man(b1-4)GlcNAc(b1-4)[Fuc(a1-6)]GlcNAc
# Procedure, shortened: as §1
# [13] = molecular target: Gal(b1-3)GlcNAc(b1-3)Gal(b1-3)GlcNAc
# Procedure, shortened: as §1
# [14] = molecular target: Gal(b1-3)GlcNAc(b1-3)Gal(b1-4)Glc
# Procedure, shortened: as §1
# [15] = molecular target: Gal(b1-3)GlcNAc(b1-3)Gal(b1-4)GlcNAc
# Procedure, shortened: as §1
binder,measurement,setting,value
B1,glycan array binding signal (z-score),Gal(a1-2)Gal,0.268
same,glycan array binding signal (z-score),Gal(a1-3)Gal,-0.178
same,glycan array binding signal (z-score),Gal(a1-3)Gal(b1-3)GlcNAc,-0.508
same,glycan array binding signal (z-score),Gal(a1-3)Gal(b1-4)Glc,-0.489
same,glycan array binding signal (z-score),Gal(a1-3)Gal(b1-4)GlcNAc,-0.184
same,glycan array binding signal (z-score),[1],-0.288
same,glycan array binding signal (z-score),[2],0.428
same,glycan array binding signal (z-score),Gal(a1-3)GalNAc,-0.472
same,glycan array binding signal (z-score),[3],-0.59
same,glycan array binding signal (z-score),Gal(a1-4)Gal(b1-4)Glc,-0.612
same,glycan array binding signal (z-score),Gal(a1-4)Gal(b1-4)GlcNAc,-0.428
same,glycan array binding signal (z-score),[4],0.166
same,glycan array binding signal (z-score),Gal(a1-4)GlcNAc,-0.507
same,glycan array binding signal (z-score),Gal(a1-6)Glc,-0.117
same,glycan array binding signal (z-score),Gal(b1-2)Gal,-0.582
same,glycan array binding signal (z-score),Gal(b1-3)Gal,-0.133
same,glycan array binding signal (z-score),Gal(b1-3)Gal(b1-4)GlcNAc,0.151
same,glycan array binding signal (z-score),[5],-0.557
same,glycan array binding signal (z-score),Gal(b1-3)GalNAc,-0.469
same,glycan array binding signal (z-score),[6],-0.504
same,glycan array binding signal (z-score),[7],-0.627
same,glycan array binding signal (z-score),[8],-0.387
same,glycan array binding signal (z-score),[9],-0.52
same,glycan array binding signal (z-score),[10],0.396
same,glycan array binding signal (z-score),Gal(b1-3)GlcNAc,-0.195
same,glycan array binding signal (z-score),[11],-0.634
same,glycan array binding signal (z-score),[12],-0.491
same,glycan array binding signal (z-score),[13],-0.144
same,glycan array binding signal (z-score),[14],-0.268
same,glycan array binding signal (z-score),[15],-0.474
